Reference: the supplement of paper PMC4604168 (melanoma cell lines)
The list shows a part of the results. Most values come without repeats; read them as rough.

The compounds below were run on WM115 (assay: cell count relative to DMSO control; melanoma cells; higher = more viable cells). Settings: library dose: low library concentration; 72 h.
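Note: cell number obtained by counting DAPI-stained nuclei in high-throughput microscope images with image analysis software, screen run in 1,536-well plates.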

Structure (SMILES)	cell count
CC(=O)c1c(C)c2cnc(Nc3ccc(N4CCNCC4)cn3)nc2n(C2CCCC2)c1=O [palbociclib] + Cn1cc(/C=C2\C(=O)Nc3cccnc32)c2ccccc21 [GW441756] (first compound 0.04 µM, partner dose 0.4 µM)	70.3%
CO[C@H]1C[C@@H]2CC[C@@H](C)[C@@](O)(O2)C(=O)C(=O)N2CCCC[C@H]2C(=O)O[C@H]([C@H](C)C[C@@H]2CC[C@@H](OCCO)[C@H](OC)C2)CC(=O)[C@H](C)/C=C(\C)[C@@H](O)[C@@H](OC)C(=O)[C@H](C)C[C@H](C)/C=C/C=C/C=C/1C [everolimus] + Cn1nnc2c(C(N)=O)ncn2c1=O [temozolomide] (first compound 0.02 µM, partner dose 2 µM)	77.9%
CC(=O)O[C@@]12CO[C@@H]1C[C@H](O)[C@@]1(C)C(=O)[C@H](O)C3=C(C)[C@@H](OC(=O)[C@H](O)[C@@H](NC(=O)OC(C)(C)C)c4ccccc4)C[C@@](O)([C@@H](OC(=O)c4ccccc4)[C@H]21)C3(C)C [Docetaxel] + NC(=O)Nc1cc(-c2cccc(F)c2)sc1C(=O)N[C@H]1CCCNC1 [AZD7762] (first compound 0.0001 µM, partner dose 0.02 µM)	56.2%
Nc1nc(F)nc2c1ncn2[C@@H]1O[C@H](CO)[C@@H](O)[C@@H]1O [fludarabine] + C=CCn1c(=O)c2cnc(Nc3ccc(N4CCN(C)CC4)cc3)nc2n1-c1cccc(C(C)(C)O)n1 [MK1775] (first compound 0.2 µM, partner dose 0.02 µM)	73.9%
